In all, about 220,000 compounds went through this assay and about 5,700 (2.6%) were called active. This list was built around the results that the source calls inconclusive (neither active nor inactive); the mix of calls is not that of the screen. The call rests on the fitted dose curve; in most records, active means well fitted inhibition curve with a large enough effect; inconclusive means small, poorly fitted or top-dose-only effect; inactive means no such curve, though single readings can be large or run the other way. A potency beside an inconclusive call is a rough fit, not a confirmed value.
target: Lysine-specific demethylase 5B (Homo sapiens) (UniProt Q9UGL1); test: Primary screen for KDM5B Histone Demethylases FDH-coupled qHTS; settings: FDH-coupled NADH fluorescence (FDH is formaldehyde dehydrogenase); activity change, negative = inhibition: at 57.7 µM (top of the series) unless noted; further: nearly all actives have a fitted effect of over 70% in size; on activity change, negative = inhibition: 0% is about no effect
Procedure, shortened: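 KDM5BΔAP (200 nM final) in 50 mM HEPES pH 7.5, 0.01% Tween-20 was preincubated 10 min at RT with compound over a concentration range. Substrate mix (H3K4me3 12.5 µM, α-KG 25 µM, Fe²⁺, ascorbate, NAD⁺, FDH) was added, and NADH fluorescence change over 30 min gave dose-response curves.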
Potency means the concentration at half of the fitted maximal effect; tags describe the fitted curve by direction and shape.

Sequence of UniProt Q9UGL1 (Q9UGL1 whole entry, looked up): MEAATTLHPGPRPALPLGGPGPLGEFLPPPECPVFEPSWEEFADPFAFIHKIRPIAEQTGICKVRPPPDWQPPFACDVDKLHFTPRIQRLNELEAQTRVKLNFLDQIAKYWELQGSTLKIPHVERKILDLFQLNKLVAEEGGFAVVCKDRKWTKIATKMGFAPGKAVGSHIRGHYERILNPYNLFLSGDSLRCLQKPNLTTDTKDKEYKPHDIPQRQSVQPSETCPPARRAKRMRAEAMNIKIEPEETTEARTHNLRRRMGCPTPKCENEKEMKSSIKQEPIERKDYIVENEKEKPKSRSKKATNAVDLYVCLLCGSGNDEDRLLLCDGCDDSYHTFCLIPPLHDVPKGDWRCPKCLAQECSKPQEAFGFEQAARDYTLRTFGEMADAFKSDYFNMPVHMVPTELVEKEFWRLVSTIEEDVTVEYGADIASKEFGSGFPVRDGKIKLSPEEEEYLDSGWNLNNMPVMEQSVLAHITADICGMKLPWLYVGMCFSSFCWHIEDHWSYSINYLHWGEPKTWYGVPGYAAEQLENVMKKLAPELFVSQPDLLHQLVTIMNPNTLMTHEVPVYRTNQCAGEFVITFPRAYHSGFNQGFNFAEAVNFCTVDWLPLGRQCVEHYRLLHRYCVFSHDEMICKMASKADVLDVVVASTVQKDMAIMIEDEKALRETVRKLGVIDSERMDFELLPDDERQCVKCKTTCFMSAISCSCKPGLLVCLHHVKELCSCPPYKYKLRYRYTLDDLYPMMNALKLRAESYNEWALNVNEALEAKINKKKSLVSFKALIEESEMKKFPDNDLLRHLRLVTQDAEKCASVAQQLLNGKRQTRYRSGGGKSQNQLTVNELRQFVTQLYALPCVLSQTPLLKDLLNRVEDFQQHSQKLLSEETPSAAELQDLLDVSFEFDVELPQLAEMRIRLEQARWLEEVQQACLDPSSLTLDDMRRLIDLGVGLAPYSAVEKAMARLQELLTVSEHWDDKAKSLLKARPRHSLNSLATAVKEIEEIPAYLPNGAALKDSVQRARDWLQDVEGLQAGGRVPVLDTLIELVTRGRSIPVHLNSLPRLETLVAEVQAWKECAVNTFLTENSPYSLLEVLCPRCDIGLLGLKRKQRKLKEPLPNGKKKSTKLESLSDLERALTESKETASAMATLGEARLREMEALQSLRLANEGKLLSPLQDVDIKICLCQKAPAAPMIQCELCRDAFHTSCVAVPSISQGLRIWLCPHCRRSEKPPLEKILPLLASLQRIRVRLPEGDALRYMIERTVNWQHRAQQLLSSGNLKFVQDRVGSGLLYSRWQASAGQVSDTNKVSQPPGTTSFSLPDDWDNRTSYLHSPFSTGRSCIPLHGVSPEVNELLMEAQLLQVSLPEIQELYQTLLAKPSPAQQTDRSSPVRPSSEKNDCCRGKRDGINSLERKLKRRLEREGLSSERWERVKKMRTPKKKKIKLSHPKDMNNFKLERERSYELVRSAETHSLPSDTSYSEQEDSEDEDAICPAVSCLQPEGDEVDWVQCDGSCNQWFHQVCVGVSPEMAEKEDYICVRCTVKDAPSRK

Structure (SMILES) | Potency | activity change, negative = inhibition
Cc1ccc(NC(=O)/C(C#N)=C\c2ccccc2OC(F)F)cc1 | inconclusive: 12.6 µM [inhibitor, partial curve, poor fit] | 
Cc1ccc(S(=O)Cc2nc(-c3ccc(C(=O)NCCN4CCCCC4)cc3)oc2C)cc1 (stereo not given) | inconclusive: 25.1 µM [inhibitor, single point] | 
O=C(Cc1ccc(F)cc1)NC1CCN(c2cc(-c3ccccc3)[nH]n2)C1 (stereo not given) | inconclusive: 10 µM [inhibitor, partial curve] | 
CN(CCO)c1ccc(-c2nc(CCCc3ccccc3)no2)cn1 | inconclusive: 17.8 µM [inhibitor, partial curve, poor fit] | 
CN1C[C@@H](NC(=O)c2ccc3c(c2)OCO3)C[C@H]1c1nc(-c2ccc3ccccc3c2)no1 | inconclusive: 31.6 µM [inhibitor, partial curve, poor fit] | 
CC1CCCC(C)N1C(=O)CSc1nc2cc(Cl)ccc2s1 (stereo not given) | inactive | 
O=C(NC1(O)C(=O)c2ccccc2C1=O)c1ccc(C(F)(F)F)cc1 | inconclusive: 11.2 µM [inhibitor, partial curve, poor fit] | 
CCCCOc1ccc(C(=O)Nc2ccc(S(=O)(=O)Nc3nc(C)cc(C)n3)cc2)cc1 | inconclusive: 28.2 µM [inhibitor, single point] | 
O=C(NC1CCN(Cc2ccccc2)CC1)c1cc2c(s1)CN(C1CCCC1)C2 | inconclusive: 28.2 µM [inhibitor, partial curve, poor fit] | 
N#Cc1ccc(CNCCN2CCCC2)cc1 | inconclusive: 39.8 µM [inhibitor, single point] | 
O=C(NCCCc1ccccc1)c1cccc2cccnc12 | inactive | 
CC1CCc2nc3ncn(Cc4ccc(Cl)cc4)c(=O)c3cc2C1 (stereo not given) | inconclusive: 1 µM [inhibitor, partial curve, poor fit] | 
CC(C)Sc1nnc([C@H](Cc2ccccc2)NC(=O)OC(C)(C)C)o1 | inconclusive: 35.5 µM [inhibitor, single point] | 
O=C(N/N=C/c1cc2c(cc1Cl)OCO2)c1cccc(Br)c1 | inconclusive: 20 µM [inhibitor, partial curve, poor fit] | 
CC(Sc1nc2ccccc2s1)C(=O)NC1(C#N)CCCCC1 (stereo not given) | inactive | 
C=CCOc1cccc(-c2nc(C(=O)N(C)CC)cs2)c1 | inconclusive: 25.1 µM [inhibitor, single point] | 
CCCNc1c(NC(=O)NCc2ccc(C)cc2)c(=O)oc2ccccc12 | inactive | 
CN1Cc2cccn2CC1CNC(=O)c1cccc(F)c1 (stereo not given) | active: 25.1 µM | 
O=C(c1ccc(F)cc1)N1CC[C@H](c2nc3ccc(F)cc3[nH]2)C1 | inactive | 
O=C(c1ccccc1)N1CCCC(c2nn(-c3ccc(Cl)cc3)c(=O)[nH]2)C1 (stereo not given) | inactive | 
Cc1cc(F)ccc1-c1cccc(COc2cnc3c(ccn3CC(=O)O)c2)c1 | inconclusive: 35.5 µM [inhibitor, partial curve, poor fit] | 
O=C1NC2(CCCN([S+](=O)([O-])c3ccccc3)C2)COc2ccccc21 (stereo not given) | inconclusive: 35.5 µM [inhibitor, single point] | 
CCC(C)N(CC(=O)Nc1cccc(C)c1C)C(=O)CN1CCCC(C(F)(F)F)C1 (stereo not given) | inactive | 

Structure (SMILES) | Potency | activity change, negative = inhibition
COc1ccc(-c2[nH]nc3ncc(-c4ccccc4)nc23)c(C)c1 | inactive | 
COc1ccc(NC(=O)c2sc3nc(C)c(C(=O)Nc4ccc(C)cc4C)c(-c4ccccc4Cl)c3c2N)cc1 | inconclusive: 2.82 µM [inhibitor, full curve, poor fit] | 
COc1ccc(-n2cc(C(=O)N(C)c3cc(C)ccc3OC)c3ccccc3c2=O)cc1 | inconclusive: 6.31 µM [inhibitor, partial curve, poor fit] | 
CC1(C)CC(NC(=S)Nc2cccc(C(F)(F)F)c2)CC(C)(C)N1 | inactive | 
CCc1ccc(-c2nn(-c3ccccc3)cc2/C=N/O)cc1 | inactive | 
CCOc1ccccc1NC(=O)CSc1ccc2nnc(CCNS(=O)(=O)c3ccccc3)n2n1 | inactive | 
COc1ccc(C)cc1NS(=O)(=O)c1c(C)nc2sc(C)cn2c1=O |  | inconclusive: -33.6% [inhibitor]
CC(C)Cc1cc(C(=O)N2CCOCC2CC(=O)N2CC=CC2)nc(=O)[nH]1 (stereo not given) | inconclusive: 14.1 µM [inhibitor, partial curve] | 
Cc1[nH]c2ccc(F)cc2c1CC(=O)NCCCN1CCCCC1 | inactive | 
Cc1ccc2oc(=O)cc(N3CCOCC3)c2c1 | inactive | 
Cc1ccc(Nc2ncnc3c2cnn3-c2ccc(C)cc2)cc1 |  | inconclusive: -31.1% [inhibitor]
Cc1oc(-c2ccc(C(=O)NC(C)c3ccccc3)cc2)nc1CS(=O)(=O)c1ccccc1 (stereo not given) | inconclusive: 28.2 µM [inhibitor, partial curve, poor fit] | 
CN(C)C(CNC(=S)NC(C)(C)CC(C)(C)C)c1ccccc1 (stereo not given) | inactive | 
CN1c2cc(C(=O)N3CCN(c4cccc(Cl)c4)CC3)ccc2C(=O)N2CCCC21 (stereo not given) | inconclusive: 25.1 µM [inhibitor, partial curve, poor fit] | 
COC(=O)c1ccccc1NC(=O)CCCN1C(=O)C(c2ccccc2)Oc2cccnc21 (stereo not given) | inconclusive: 35.5 µM [inhibitor, partial curve, poor fit] | 
O=C1NCCCCCCN(Cc2ccncc2)[C@@H]2CN(C(=O)c3cccs3)CC[C@@H]12 | inconclusive: 31.6 µM [inhibitor, single point] | 
COC(=O)C1=CN(CC(=O)Nc2ccc(C)cc2Cl)S(=O)(=O)N=C1C | inactive | 
c1ccc(-c2csc3ncnc(NCc4ccccn4)c23)cc1 | inactive | 
O=C(c1ccccc1)N1CCC(c2nc(C3CCOCC3)no2)CC1 | inactive | 
Fc1ccc(-c2cn3cc(Cc4ccccc4Cl)sc3n2)cc1 | inconclusive: 0.891 µM [inhibitor, full curve, poor fit] | 
Cc1cc(O)c(C(c2ccc(Cl)cc2)N2CCN(c3ccccc3)CC2)c(=O)n1Cc1ccco1 (stereo not given) | inconclusive: 44.7 µM [inhibitor, single point] | 
COc1ccc(OCC2(C)COc3ccc(C(=O)Nc4ccccc4)cc3N2)cc1 (stereo not given) | active: 28.2 µM | 

Source: PubChem BioAssay AID1347165 (National Center for Advancing Translational Sciences (NCATS), 2019)
